Among the data in paper PMC8585052 are binding values, retold here.

By UniProt entry, the sequences of proteins in these tests, tags left out. Where a name states a change or a piece, a line headed by the entry shows the natural chain unless it says otherwise. Chains listed by the source or under a name are the forms on record and can include a tag or linker. Residues count along the entry.
UniProt Q96EP0: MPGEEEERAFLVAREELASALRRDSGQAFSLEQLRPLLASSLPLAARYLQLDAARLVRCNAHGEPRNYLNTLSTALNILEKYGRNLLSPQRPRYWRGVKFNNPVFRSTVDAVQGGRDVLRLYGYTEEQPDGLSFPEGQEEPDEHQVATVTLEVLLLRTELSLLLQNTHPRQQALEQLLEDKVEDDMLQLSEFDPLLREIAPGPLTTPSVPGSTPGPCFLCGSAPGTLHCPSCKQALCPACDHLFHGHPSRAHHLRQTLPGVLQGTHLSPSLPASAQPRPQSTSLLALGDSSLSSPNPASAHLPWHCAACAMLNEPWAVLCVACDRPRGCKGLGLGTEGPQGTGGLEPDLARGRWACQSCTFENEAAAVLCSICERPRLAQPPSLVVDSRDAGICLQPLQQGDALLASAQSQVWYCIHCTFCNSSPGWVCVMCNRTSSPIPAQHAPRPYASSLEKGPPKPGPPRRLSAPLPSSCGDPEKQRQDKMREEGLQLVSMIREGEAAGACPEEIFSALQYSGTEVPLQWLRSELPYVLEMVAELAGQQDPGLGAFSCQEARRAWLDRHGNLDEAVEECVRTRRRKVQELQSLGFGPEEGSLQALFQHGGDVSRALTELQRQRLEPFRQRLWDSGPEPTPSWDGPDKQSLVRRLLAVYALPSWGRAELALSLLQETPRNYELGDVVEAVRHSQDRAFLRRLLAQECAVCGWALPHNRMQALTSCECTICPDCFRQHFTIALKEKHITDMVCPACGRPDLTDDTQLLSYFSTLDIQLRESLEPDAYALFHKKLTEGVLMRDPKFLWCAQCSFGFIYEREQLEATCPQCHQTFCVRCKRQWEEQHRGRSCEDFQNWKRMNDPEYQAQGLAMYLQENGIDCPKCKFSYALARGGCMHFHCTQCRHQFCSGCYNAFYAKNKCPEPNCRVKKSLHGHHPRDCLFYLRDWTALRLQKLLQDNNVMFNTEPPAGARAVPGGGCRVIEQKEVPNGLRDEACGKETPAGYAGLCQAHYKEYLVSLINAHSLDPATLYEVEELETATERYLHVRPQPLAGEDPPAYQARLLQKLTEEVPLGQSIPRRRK
FLAG-tagged HOIP N563: residues 1-563 of Q96EP0
FLAG-tagged HOIP N349: residues 1-349 of Q96EP0

Results are given in words; binding and its absence hold for the method and conditions named. In cells and extracts the contact can be indirect. Some results given as binding are weak or reduced against the parent protein; the word gives no strength. Sequences can lack the tags named with a protein.

Common to all, as to assay: co-IP; tagged proteins co-transfected into HEK293 cells, lysed after 48 h (50 mM Tris-HCl pH 7.5, 10 mM MgCl2, 100 mM NaCl, 0.5% Nonidet P40, 10% glycerol); immunoprecipitated overnight at 4 °C with the indicated antibody plus protein A/G agarose or anti-FLAG M2 gel; Western blot
Assay [1] deals with FLAG-tagged HOIP N349 (human) (UniProt Q96EP0).
In assay [2] the target is FLAG-tagged HOIP N563 (human) (UniProt Q96EP0).
In assay [3] the target is FLAG-tagged EGFR kinase domain (human) (UniProt P00533).
Another assay addresses FLAG-tagged HOIP (human) (UniProt Q96EP0).

B1: HA-tagged PKP2 N348 (domain or fragment, UniProt Q99959-2 1-348)
chain: MAAPGAPAEYGYIRTVLGQQILGQLDSSSLALPSEAKLKLAGSSGRGGQTVKSLRIQEQVQQTLARKGRSSVGNGNLHRTSSVPEYVYNLHLVENDFVGGRSPVPKTYDMLKAGTTATYEGRWGRGTAQYSSQKSVEERSLRHPLRRLEISPDSSPERAHYTHSDYQYSQRSQAGHTLHHQESRRAALLVPPRYARSEIVGVSRAGTTSRQRHFDTYHRQYQHGSVSDTVFDSIPANPALLTYPRPGTSRSMGNLLEKENYLTAGLTVGQVRPLVPLQPVTQNRASRSSWHQSSFHSTRTLREAGPSVAVDSSGRRAHLTVGQAAAGGSGNLLTERSTFTDSQLGNAD
As for B1, the binding result is listed as “no binding” in assay [1] and “binds” in assay [2].

B2: HA-tagged PKP2 (protein, UniProt Q99959-2 1-837)
chain: MAAPGAPAEYGYIRTVLGQQILGQLDSSSLALPSEAKLKLAGSSGRGGQTVKSLRIQEQVQQTLARKGRSSVGNGNLHRTSSVPEYVYNLHLVENDFVGGRSPVPKTYDMLKAGTTATYEGRWGRGTAQYSSQKSVEERSLRHPLRRLEISPDSSPERAHYTHSDYQYSQRSQAGHTLHHQESRRAALLVPPRYARSEIVGVSRAGTTSRQRHFDTYHRQYQHGSVSDTVFDSIPANPALLTYPRPGTSRSMGNLLEKENYLTAGLTVGQVRPLVPLQPVTQNRASRSSWHQSSFHSTRTLREAGPSVAVDSSGRRAHLTVGQAAAGGSGNLLTERSTFTDSQLGNADMEMTLERAVSMLEADHMLPSRISAAATFIQHECFQKSEARKRVNQLRGILKLLQLLKVQNEDVQRAVCGALRNLVFEDNDNKLEVAELNGVPRLLQVLKQTRDLETKKQITGLLWNLSSNDKLKNLMITEALLTLTENIIIPFSGWPEGDYPKANGLLDFDIFYNVTGCLRNMSSAGADGRKAMRRCDGLIDSLVHYVRGTIADYQPDDKATENCVCILHNLSYQLEAELPEKYSQNIYIQNRNIQTDNNKSIGCFGSRSRKVKEQYQDVPMPEEKSNPKGVEWLWHSIVIRMYLSLIAKSVRNYTQEASLGALQNLTAGSGPMPTSVAQTVVQKESGLQHTRKMLHVGDPSVKKTAISLLRNLSRNLSLQNEIAKETLPDLVSIIPDTVPSTDLLIETTASACYTLNNIIQNSYQNARDLLNTGGIQKIMAISAGDAYASNKASKAASVLLYSLWAHTELHHAYKKAQFKKTDFVNSRTAKAYHSLKD
Consider B2, for which the binding entry (in assay [3]; with FLAG-tagged HOIP (human)) was “binds” in each case.
